These results are taken from PMC9574860, “Chemical Toolkit for PARK7: Potent, Selective, and High-Throughput” (Journal of Medicinal Chemistry, 2022).

The whole screen tested about 7,900 compounds, of which about 400 (5.1%) showed an effect of 50% or more. The list shows a part of the results.

Chain of Parkinson's disease protein 7 (PARK7/DJ1) (Q99497 whole entry, looked up, the tested form may be a part): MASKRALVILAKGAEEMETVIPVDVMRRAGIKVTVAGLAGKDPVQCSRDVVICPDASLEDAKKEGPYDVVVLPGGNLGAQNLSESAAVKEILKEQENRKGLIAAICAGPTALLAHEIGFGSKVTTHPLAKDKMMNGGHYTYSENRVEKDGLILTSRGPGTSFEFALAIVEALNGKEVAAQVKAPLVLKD

In this assay the target is Parkinson's disease protein 7 (PARK7/DJ1) (human, UniProt Q99497). Kind of assay: primary screen, percent inhibition; read as competition with a fluorescent probe by fluorescence polarization; higher = more effect of the substance. The settings on record: 100 µM. An outline of the steps:
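Fluorescence-polarization probe displacement (JYQ-107, 20 nM final, 2 h) after 2 h preincubation of PARK7 (0.2 μM final) with each fragment at 100 μM final. Read-out ex/em 480/520 nm; remaining activity derived from FP signal loss relative to reference controls.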
On to `C=CC(=O)NCc1ccc(=O)[nH]n1`, for which the Inhibition % came to 7.52%. Under `O=C(CCl)Nc1cc2c(cc1Cl)OCCO2` stands 22.8%; under `C=CC(=O)N1CCc2cccc(Cl)c2C1`, 2.19%; under `Cc1nccn1S(=O)(=O)c1ccc(Cl)cc1Cl`, 4.34%. Regarding `N#CC(C(=O)CCl)c1nnc2n1CCCCC2` (stereo not drawn), the Inhibition % turned out to be 11.9%.

As to `Cc1ccc(C)c(NC(=O)Cn2cnc(C#N)n2)c1`, the Inhibition % is 2.34%. Turning to `C=CC(=O)N1CC(=O)NC(C)C1` (stereo not drawn), the Inhibition % amounted to 5.57%. For the compound `C=CC(=O)N1CCC(C)(OCC)CC1`, the Inhibition % is 8.19%. Consider `Cc1ccc(C)c(NC(=O)CCl)c1`, for which the Inhibition % is listed as 8.12%. For the compound `C=CC(=O)NCc1ccc(C(=O)O)cc1`, the Inhibition % was determined as 5.08%.

With `Cc1nc(CCCl)no1`, the Inhibition % is 2.21%. Regarding `Cl.ClCCn1cccn1`, the Inhibition % is recorded as 10.8%. Then `O=C(CCl)NCC(=O)Nc1ccc(F)c(F)c1`, with 8%. As to `Cn1cc(C=CC(=O)N2CCOCC2)cn1`, the Inhibition % was 12.5%.

Regarding `CCNC(=O)c1cccc(NC(=O)CCl)c1`, the Inhibition % is recorded as 12.3%. Turning to `C=CC(=O)NC1CCC2(CC1)COC2`, the Inhibition % turned out to be 12.3%. Under `Cl.O=S(=O)(F)CCC1CCCCN1` (stereo not drawn) stands 1.97%; under `C=CC(=O)N1CCCC1c1nc2ccccc2n1C` (stereo not drawn), 4.28%.

`N#CC(=Cc1csc(-c2ccsc2)n1)C(=O)NC1CC1`: the Inhibition % was found to be 5.55%. With `COc1ccc(N2CCN(C(=O)CCCl)CC2)cc1`, the Inhibition % is reported as 18.5%. Under `C=CC(=O)N1CCN(c2cccc(C)c2)CC1` stands 11%; under `Cn1ncc(C(=O)Nc2cccc(S(=O)(=O)F)c2)c1C#N`, 4.68%; under `O=C1CN(C(=O)CCl)C2(CCCCC2)C(=O)N1`, 38.3%.

On to `COc1ncc(B2OC(C)(C)C(C)(C)O2)cc1C(F)(F)F`, for which the Inhibition % came out at 1.49%. Regarding `Cc1nc(C=CC(=O)N2CCCC[C@@H]2C(=O)O)cs1`, the Inhibition % was 6.39%. As for `N#Cc1cnc(OCC(F)(F)F)cn1`, the Inhibition % was 4.9%.

Take `Cc1cc(C)n(S(=O)(=O)c2ccc(Cl)c(C)c2)n1`: the Inhibition % worked out at 7.52%.

As to `N[C@@H]1CCN(C(=O)C=Cc2cc3ccccc3o2)C1`, the Inhibition % is listed as 18.2%. On to `CCN(CC)CCn1c(S)nc2ccccc2c1=O`, for which the Inhibition % is 4.52%. With `C=CC(=O)N1CCOc2c1c(C)nn2C`, the Inhibition % came out at 23.5%. Then `CCN(C(=O)CCl)C1CCCCC1`, with 9.37%; and `O=C(Nc1ccc(F)cc1)N1CCC(C2OCCO2)CC1`, with 9.17%; and `COC(Cc1cccc(Cl)c1)OC`, with 28.9%. Consider `CCOC(=O)c1sc(NC(=O)CCl)c(C#N)c1C`, for which the Inhibition % amounted to 3.35%. On to `CC1(C)[C@@H](Nc2cnc(C#N)cn2)[C@@H]1c1ccccc1` (racemic), for which the Inhibition % stood at 10.2%. As to `COCCOc1cccc(B(O)O)c1`, the Inhibition % is 4.68%. As for `O=C(CCl)Nc1ccc(S(=O)(=O)N2CCCC2)cc1`, the Inhibition % is given as 85.4%.

Regarding `O=C(CCl)N1CCC(c2nc3ccccc3s2)CC1`, the Inhibition % turned out to be 38.1%. Take `C=CC(=O)N1CCC(CC(=O)NC)CC1`: the Inhibition % is on record as 5.8%. Take `Clc1ccc(Cl)c(C2CO2)c1` (stereo not drawn): the Inhibition % is given as 11.1%.

For `O=C(CCl)Nc1cccc(S(=O)(=O)N2CCOCC2)c1`, the Inhibition % worked out at 8.1%. Then `Cc1nc(S)c(C#N)c(-c2ccco2)c1C(=O)N(C)C`, with 27.4%; and `C=CC(=O)NC1COC(C)C1` (stereo not drawn), with 5.84%; and `Cc1cccc(NC(=O)CCCCl)c1`, with 16%. `Cc1ccc2c(c1)C(NC(=O)C1CSC(=O)N1)C(C)C2` (stereo not drawn): the Inhibition % is 3.23%. In the case of `C=CCNC(=O)C(C#N)=Cc1cccc(F)c1`, the Inhibition % turned out to be 25.3%. For the compound `CS(=O)(=O)C(C#N)=Cc1cccc(Cl)c1Cl`, the Inhibition % was found to be 7.8%. Then `C=CC(=O)NCC1CC(C)OC1C` (stereo not drawn), with 9.66%; and `C=CC(=O)N1CCN(S(C)(=O)=O)[C@H](C)C1`, with 7.14%; and `C=CC(=O)NC(c1ccccn1)C1CCC1` (stereo not drawn), with 8.31%. `Cc1ccc(C=C(C#N)C(N)=O)c(C)c1`: the Inhibition % is 4.01%. Under `CN(C(=O)CCl)c1ccccc1C(=O)NCc1ccco1` stands -1.54%; under `N#CC(=Cc1ccc(F)cc1)C(N)=O`, -1.53%. As for `COc1cc(C)c(C(C)C)cc1S(=O)(=O)n1ccnc1`, the Inhibition % is 4.53%.

Consider `C=CC(=O)N1CC=C(C(C)(C)C)CC1`, for which the Inhibition % is recorded as 8.33%.

For `O=C(CCl)c1sccc1Cl`, the Inhibition % came out at 94.4%.

Consider `N#Cc1cc(C(=O)NCC2CCc3nccn3C2)c[nH]1` (stereo not drawn), for which the Inhibition % worked out at 16.5%. As to `C=CC(=O)NCc1cnn(C)c1`, the Inhibition % was 11.9%.

On to `Cn1cc(C2NC(=O)C2(C)C)cn1` (stereo not drawn), for which the Inhibition % was 9.65%. For `Cc1cc(CNc2nccnc2C#N)ccc1Cl`, the Inhibition % came to 4.27%.

Regarding `CC(C)(C)N1CC(Nc2ccc(C#N)nc2)CC1=O` (stereo not drawn), the Inhibition % was -0.609%. For the compound `COc1ccc(S(=O)(=O)F)cc1C(=O)O`, the Inhibition % stood at 20.2%. Under `Cc1ccc(OCC2CO2)cc1` (stereo not drawn) stands 5.56%. In the case of `CC1CN(Cn2nc(-c3ccccc3)oc2=O)CC(C)O1` (stereo not drawn), the Inhibition % is 7.53%. With `COc1ccc(S(=O)(=O)n2cccn2)cc1C(C)(C)C`, the Inhibition % came to 9.73%. As for `C=CC(=O)NCc1nnc(-c2ccncc2F)s1`, the Inhibition % stood at 3.91%. With `N#Cc1ccc(S(=O)(=O)CCCl)cc1`, the Inhibition % is 0.986%.

In the case of `Cc1c(F)cccc1NC(=O)N1CCCC12CCOC2=O` (stereo not drawn), the Inhibition % came out at 2.48%.

Consider `C=CC(=O)NC1CCC1C1CC1` (stereo not drawn), for which the Inhibition % is 4.78%. Then `Nc1cc(=O)nc(S)n1Cc1ccccc1`, with 13%; and `C=CC(=O)N1CC(=O)Nc2cccc3c2C1CCC3` (stereo not drawn), with 7.81%; and `CC(C)OCc1cccc(B(O)O)c1`, with 3.49%. With `CC1(C)OB(c2cccc(S(N)(=O)=O)c2)OC1(C)C`, the Inhibition % is given as 2.2%. For `NC(=O)c1ccc(S(=O)(=O)OCC(F)(F)F)cc1`, the Inhibition % was -2.83%.

As to `OB(O)c1cnn(-c2ccc(C(F)(F)F)cc2)c1`, the Inhibition % was 11.3%. For the compound `C=CC(=O)N1CCN(CC)C(=O)C1C` (stereo not drawn), the Inhibition % is recorded as 5.08%. Then `O=c1[nH]nc(-c2cccs2)o1`, with 12.1%; and `O=C(CCl)Nc1cccnc1N1CCCC1`, with 18.8%. Then `O=C(c1cccs1)N1CCC(CS(=O)(=O)F)C1` (stereo not drawn), with 97.1%; and `C=CC(=O)N1CCC(CCCn2ccnc2)CC1`, with 3.21%; and `N#Cc1ccc(C(F)(F)F)[nH]1`, with 7.52%. As for `CC1(C)OB(c2ccc3c(c2)C(=O)NCCO3)OC1(C)C`, the Inhibition % stood at 2.85%. Consider `OB(O)c1cccc2c1OCCC2`, for which the Inhibition % was 4.89%. `COc1ccc(NC(=O)c2cccnc2S)cn1`: the Inhibition % is 4.24%. `Cl.O=C(CCl)N1CCN(Cc2cccc(Cl)c2)CC1`: the Inhibition % is on record as 6.86%. For the compound `Cl.O=C(NC1CCNCC1)Oc1ccccc1`, the Inhibition % is 6.77%. Under `CNC(=O)n1ccnc1` stands 75.1%; under `C=CC(=O)NCC12CC(CO1)C2`, 4.75%; under `CNC(=O)C(C)(C)CNc1ccc(C#N)nc1`, 3.68%. Then `C=CC(=O)Nc1cnn(C)c1C(F)F`, with 3.32%; and `C=CC(=O)Nc1nsc(N2CCCC2)n1`, with 16%.

As to `Cc1csc(N2CCN(C3CCOC3=O)CC2)n1` (stereo not drawn), the Inhibition % is 5.83%.

Turning to `C=CC(=O)NC(C)(C)c1nc(C)c(C)s1`, the Inhibition % came out at 12.9%. With `O=C(CCl)Nc1ccc(Cl)cc1`, the Inhibition % was 60.3%. Under `Cc1cc(NC(=O)c2cccnc2S)nn1C` stands 4.06%; under `C=CC(=O)N1CC(=O)N(C)CC1C` (stereo not drawn), 8.04%. Under `COC(Cc1ncccn1)OC` stands 11.1%. As to `N#Cc1ncn(CCOc2ccc(F)cc2)n1`, the Inhibition % worked out at 5.39%.

For `COc1ccc(OC)c(-c2csc(NC(=O)CCl)n2)c1`, the Inhibition % is given as 6.67%.

With `C=CC(=O)NCCCc1cnn(C)n1`, the Inhibition % is 5.99%. Under `C=CC(=O)Nc1ccccc1C(=O)N1CCOCC1` stands 4.68%; under `C=CC(=O)NCC1CCC2(CCCC2)O1` (stereo not drawn), 4.84%; under `CC1(C)OB(c2ccc3c(c2)NC(=O)C3)OC1(C)C`, 27.3%.

On to `CC(=O)Nc1nn(C)cc1S(=O)(=O)F`, for which the Inhibition % is 14.8%. Then `Cn1cccc1C(=O)Cn1cnc(C#N)n1`, with 8.8%; and `CN1CCN(S(=O)(=O)c2ccc(S)nc2)CC1`, with 18.5%. For the compound `N#CN(CCO)c1ccc(F)cc1`, the Inhibition % was 6.47%. On to `CC1(C)OB(C2C3CCN(CC3)S2(=O)=O)OC1(C)C` (stereo not drawn), for which the Inhibition % worked out at 4.59%. Under `COc1ccc(S(=O)(=O)n2ccnc2)cc1C` stands 8.09%; under `O=C1CCC(=O)N1Cc1cc(F)cc2cccnc12`, 11%. Turning to `Cc1ccccc1NC(=O)CN1CCSC1=O`, the Inhibition % is given as 9.93%. Under `O=S(=O)(F)CCN1CCn2c(Cc3ccccc3)nnc2C1` stands 10.2%; under `CC1(C)Cc2cccc(Oc3cnc(C#N)cn3)c2O1`, -1.06%; under `C=CC(=O)N1C[C@@H](OC)C[C@@H]1c1nc(C)no1`, 8.99%. As for `NC(=O)N1CCc2cc(S(=O)(=O)F)ccc21`, the Inhibition % was determined as 10.9%. On to `CN1CCN(C(=O)CCl)CC1.Cl`, for which the Inhibition % came to 1.98%. `O=C(CCl)N1CCCC1c1ccc2c(c1)OCCCO2` (stereo not drawn): the Inhibition % worked out at 4.11%. In the case of `C=CC(=O)Nc1ccc2nc(N3CCOCC3)sc2c1`, the Inhibition % was 4.46%. With `CC1CN(C)CCN1C(=O)C=Cc1cnn(C)c1` (stereo not drawn), the Inhibition % came out at 7.53%.

`N#CC(=Cc1ccccc1)C(=O)N1CCCC1`: the Inhibition % worked out at 7.15%. As for `NC(=O)CN(C1CCCC1)S(=O)(=O)C=Cc1ccccc1`, the Inhibition % is recorded as 7.09%. For the compound `N#CCSc1ccccc1NC(=O)CCl`, the Inhibition % stood at 0.0244%. For the compound `CC(C)(C)OC(=O)NC1CC=C(B2OC(C)(C)C(C)(C)O2)CC1` (stereo not drawn), the Inhibition % is 3.3%. In the case of `O=C1NC2(CCCC2)C(=O)N1CCS(=O)(=O)F`, the Inhibition % is reported as 19.5%.

In the case of `C=CC(=O)N1CCC(C)C(C)(C)C1` (stereo not drawn), the Inhibition % was determined as 6.89%. In the case of `C=CC(=O)Nc1cccc(Cn2cccnc2=O)c1`, the Inhibition % stood at 8%.
